In all, about 310,000 compounds went through this assay and about 14,000 (4.5%) showed an effect of 50% or more. The effect is printed as a negative number. Some of the results follow.
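Note: peak tail current of the secondary pulse compared with the same well before compound.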

human ether-à-go-go-related gene (hERG) potassium channel, sequence (Q12809 whole entry, looked up): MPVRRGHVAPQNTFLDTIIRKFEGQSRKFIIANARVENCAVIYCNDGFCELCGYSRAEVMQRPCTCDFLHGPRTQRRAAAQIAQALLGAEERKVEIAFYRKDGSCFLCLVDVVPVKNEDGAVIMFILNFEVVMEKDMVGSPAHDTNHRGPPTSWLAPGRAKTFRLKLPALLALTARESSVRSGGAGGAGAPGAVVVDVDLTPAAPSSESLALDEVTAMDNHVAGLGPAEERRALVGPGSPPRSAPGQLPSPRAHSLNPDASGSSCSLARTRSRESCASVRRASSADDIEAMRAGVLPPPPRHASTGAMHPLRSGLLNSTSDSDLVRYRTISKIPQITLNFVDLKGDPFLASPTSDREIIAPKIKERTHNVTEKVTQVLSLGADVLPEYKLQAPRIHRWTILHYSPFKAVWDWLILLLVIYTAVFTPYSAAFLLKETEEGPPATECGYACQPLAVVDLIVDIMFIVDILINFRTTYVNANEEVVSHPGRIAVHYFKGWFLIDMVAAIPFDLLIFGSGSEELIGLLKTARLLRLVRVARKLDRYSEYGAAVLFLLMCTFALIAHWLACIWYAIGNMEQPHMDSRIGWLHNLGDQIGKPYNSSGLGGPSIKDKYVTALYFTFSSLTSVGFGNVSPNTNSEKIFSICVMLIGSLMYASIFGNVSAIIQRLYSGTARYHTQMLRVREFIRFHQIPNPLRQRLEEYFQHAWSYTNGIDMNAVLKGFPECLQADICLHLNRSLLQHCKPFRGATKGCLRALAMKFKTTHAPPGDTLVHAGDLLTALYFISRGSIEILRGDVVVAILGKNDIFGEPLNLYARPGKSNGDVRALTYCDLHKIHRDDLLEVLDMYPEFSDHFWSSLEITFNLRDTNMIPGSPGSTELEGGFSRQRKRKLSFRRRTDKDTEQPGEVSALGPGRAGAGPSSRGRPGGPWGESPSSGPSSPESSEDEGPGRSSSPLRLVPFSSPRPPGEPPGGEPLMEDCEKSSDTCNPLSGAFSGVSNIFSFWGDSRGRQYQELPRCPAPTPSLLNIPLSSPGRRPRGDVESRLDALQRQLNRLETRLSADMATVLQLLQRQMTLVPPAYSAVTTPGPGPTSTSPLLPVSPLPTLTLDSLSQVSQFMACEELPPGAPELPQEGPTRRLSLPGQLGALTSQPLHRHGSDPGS

The assay concerns the target human ether-à-go-go-related gene (hERG) potassium channel (human, UniProt Q12809). In words: primary screen, population patch clamp on CHO cells stably expressing hERG.
`C1=CCC(CN2CCNCC2)CC1.O=C(O)C(F)(F)F` (stereo not shown): the “hERG current change (%, negative = inhibition) at 10uM” value was found to be 9.96%. As to `C[N+]1(C)CC2=Cc3ccccc3CC2C1.[I-]` (stereo not shown), the “hERG current change (%, negative = inhibition) at 10uM” value turned out to be 19.5%. For `CC(C)(C)C(=O)Nc1nnc(COc2ccc(Cl)cc2)s1`, the “hERG current change (%, negative = inhibition) at 10uM” value is listed as -12.8%. With `CCOc1c2ccc(C(=O)NCCCCc3ccccc3)cc2nn1CC` the figure was -14.1%; with `N#Cc1ccccc1NC(=O)c1cc(=O)c2ccccc2o1`, -12.2%.

Turning to `CCC(C)NC(=O)C1c2ccccc2C(=O)N(c2ccc(OC)cc2)C1c1ccc(OC)cc1` (stereo not shown), the “hERG current change (%, negative = inhibition) at 10uM” value came to 10.2%. With `O=C(CS(=O)(=O)c1c[nH]c2ccccc12)NC1CCCCC1`, the “hERG current change (%, negative = inhibition) at 10uM” value was -8.19%. As for `CCN(CC)C1CC(=O)N(c2ccc(Br)cc2)C1=O` (stereo not shown), the “hERG current change (%, negative = inhibition) at 10uM” value was 12.6%. With `Cc1ccc(-c2ccc(/C=N/n3cnnc3)o2)cc1` the figure was 9.79%. Turning to `CCOc1ccccc1NC(=O)c1ccc(F)c(S(=O)(=O)N2CCC3(CC2)OCCO3)c1`, the “hERG current change (%, negative = inhibition) at 10uM” value is given as -18.6%.

Turning to `COc1ccc(CCNc2nc(-c3ccco3)cc(C(F)(F)F)n2)cc1OC`, the “hERG current change (%, negative = inhibition) at 10uM” value is 5.37%.

`CCC(=O)Nc1ccc(NCc2ccc(-c3ccccc3)cc2)cc1`: the “hERG current change (%, negative = inhibition) at 10uM” value is reported as 12.5%. With `CC(=O)Nc1n[nH]c(-c2ccc(C)cc2)c1C`, the “hERG current change (%, negative = inhibition) at 10uM” value was 4.49%. Turning to `CCCCn1c(CN(C)Cc2ccccc2)nc2c1c(=O)n(C)c(=O)n2C`, the “hERG current change (%, negative = inhibition) at 10uM” value is recorded as -39.9%. `COc1ccccc1C(C)NC(=O)Cc1ccc(S(=O)(=O)N2CCOCC2)s1` (stereo not shown): the “hERG current change (%, negative = inhibition) at 10uM” value is given as -5.65%.

With `NC(=O)NOCc1ccccc1`, the “hERG current change (%, negative = inhibition) at 10uM” value came out at 4.91%. Then `O=C(NCN1CCN(c2ccccn2)CC1)c1cnccn1`, with 1.92%; and `Cc1ccc(SC[C@H](c2ccccc2)N2CCN(CCc3ccccc3)CCC2=O)cc1`, with -74.7%; and `Cc1sc2ncnc(Sc3ccccc3C(=O)Nc3ccc(Br)cc3)c2c1C`, with 2.1%. With `CCSc1nc2sc3c(c2c(=O)[nH]1)CC(C)(CC)OC3` (stereo not shown) the figure was 19%. For the molecule `CC(=O)N1CCc2cc(S(=O)(=O)CCC(=O)Nc3cccc(F)c3)ccc21`, the “hERG current change (%, negative = inhibition) at 10uM” value came out at 7.15%. Then `Cc1ccc(N2CC(C(=O)Nc3ccc(S(=O)(=O)Nc4nccs4)cc3)CC2=O)cc1C` (stereo not shown), with 2.57%; and `COc1cc(/C=C/c2cccc[n+]2C)ccc1OCC(=O)Nc1ccccc1C.[I-]`, with 8.13%. With `C=CCn1c(SCC(=O)NC2CCS(=O)(=O)C2)nnc1-c1ccncc1` (stereo not shown) the figure was 19.3%; with `CCOC(=O)c1ccc(NC(=O)C2C3C=CC(C3)C2C(=O)O)cc1` (stereo not shown), 4.67%; with `CCOc1ccc(NS(=O)(=O)c2ccc(-c3ccc(=O)[nH]n3)o2)cc1`, 13.1%. With `CC(=O)Nc1ccc(C(=O)Nc2ccc(S(=O)(=O)N3CCCC3)cc2)cc1`, the “hERG current change (%, negative = inhibition) at 10uM” value came out at 11.8%. Then `CCn1c(SCC(=O)N2CCOCC2)nc(O)cc1=O`, with 14.2%. Then `Cc1nc2cc(-c3ccccc3)nn2c(C)c1CCC(=O)NCc1ccco1`, with -37.4%. Consider `S=C(NCc1ccco1)NCc1ccccc1Cl`, for which the “hERG current change (%, negative = inhibition) at 10uM” value was 19.8%. Regarding `NC(=S)N/N=C/c1coc2ccc(Cl)cc2c1=O`, the “hERG current change (%, negative = inhibition) at 10uM” value was found to be 8.1%. With `O=C(O)/C=C\c1cccc(-n2cnnn2)c1` the figure was -1.3%; with `Cc1cc(C)n(-c2ccc(NC(=O)C3CCN(Cc4ccccn4)CC3)cc2)n1`, -14.5%; with `CC1(C)CC(=O)c2cn3c(nc2C1)nc1ccccc13`, -43.4%.

As for `O=C(COc1ccc(S(=O)(=O)N2CCCCC2)cc1)N1CCCC1`, the “hERG current change (%, negative = inhibition) at 10uM” value was 10.9%. With `Cc1ccc(OCc2cc(C(=O)NC3CCOC3)no2)cc1C` (stereo not shown) the figure was -2.8%; with `COCOc1ccc(/C=C/C(=O)c2c(OCOC)cc(OCOC)c(CC=C(C)C)c2O)cc1OCOC`, 5.05%. Turning to `CN(C)c1cccc(C(=O)NCCCn2ccc3ccccc32)c1`, the “hERG current change (%, negative = inhibition) at 10uM” value is given as -1.2%.

For `COc1ccc(C(=O)Nc2ccc3oc(Cc4ccc(Cl)cc4)nc3c2)cc1OC`, the “hERG current change (%, negative = inhibition) at 10uM” value turned out to be 5.63%. Then `CCc1ccccc1S(=O)(=O)Cc1ccc(C(=O)NC(C)C)o1`, with -5.38%.

With `CN(C(=O)COC(=O)c1cncc(Br)c1)C1CCS(=O)(=O)C1` (stereo not shown), the “hERG current change (%, negative = inhibition) at 10uM” value was determined as 24.8%. Take `CC(C)N1C(=O)CCC1C(=O)N1CCCc2ccccc21` (stereo not shown): the “hERG current change (%, negative = inhibition) at 10uM” value was -2.71%. `O=C(NCc1ccccc1)NC1CCCCC1`: the “hERG current change (%, negative = inhibition) at 10uM” value is 16.5%.

Take `O=c1[nH]c(=O)n(-c2ccc(Cl)cc2)c(O)c1C=Nc1ccc(S(=O)(=O)Nc2nccs2)cc1`: the “hERG current change (%, negative = inhibition) at 10uM” value was found to be 22.3%.

For `COc1ccc(CCNC(=O)c2cc(C3CC3)nc3c2cnn3C(C)C)cc1`, the “hERG current change (%, negative = inhibition) at 10uM” value is recorded as -10.6%. With `Cc1ccc(C(=O)Nc2ccccc2OC(F)F)cc1` the figure was -8.63%.

For the origin of these results see publication PMC4336329 (PLoS ONE, 2015).
